No constants are given. Whether binding was seen depends on the method and setting. For some assays here: In cells and extracts the contact can be indirect. Some entries that bind do so weakly or less than the wild type. For some assays here: Sequences can lack the tags named with a protein.
Assays:
[1] = target: T1, human glycolipid transfer protein (GLTP), pGBKT7-GLTP ORF (human) (UniProt Q9NZD2); test: two-hybrid; Matchmaker GAL4 Two-Hybrid System 3; pGBKT7-GLTP in AH109 mated with Y187 holding a human brain cDNA library in pACT2; confirmed by cotransformation; growth and blue colour on SD with X-α-gal lacking Trp, Leu, His, Ade
T1 sequence: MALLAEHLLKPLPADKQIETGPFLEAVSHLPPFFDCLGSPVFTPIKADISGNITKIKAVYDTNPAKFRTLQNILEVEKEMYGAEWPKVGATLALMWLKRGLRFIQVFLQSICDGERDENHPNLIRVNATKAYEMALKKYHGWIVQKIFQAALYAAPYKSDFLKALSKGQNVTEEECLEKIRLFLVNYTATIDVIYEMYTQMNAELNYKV

[2] = target: T2, GST-GLTP (human) (UniProt Q9NZD2); test: pull-down; GST-GLTP mixed with lysate of transfected HEK293T cells, 50 mM Tris, 150 mM NaCl, 0.25% NP40, 5 h at 4°C; glutathione-Sepharose beads; blot with anti-FLAG or anti-GFP; only the target purified
T2 sequence: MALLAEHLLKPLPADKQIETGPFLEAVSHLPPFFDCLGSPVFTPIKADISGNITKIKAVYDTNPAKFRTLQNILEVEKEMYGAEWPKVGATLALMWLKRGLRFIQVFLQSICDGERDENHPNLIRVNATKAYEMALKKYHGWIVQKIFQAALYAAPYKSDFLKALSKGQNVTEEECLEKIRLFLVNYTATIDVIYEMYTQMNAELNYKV

[3] = target: T3, EGFP-GLTP (human) (UniProt Q9NZD2); test: co-IP; HEK293T cotransfected with pFLAG-δ-catenin and pEGFP-GLTP; lysate precipitated with anti-GFP monoclonal antibody and Protein A & G Plus agarose; blot with anti-FLAG
T3 sequence: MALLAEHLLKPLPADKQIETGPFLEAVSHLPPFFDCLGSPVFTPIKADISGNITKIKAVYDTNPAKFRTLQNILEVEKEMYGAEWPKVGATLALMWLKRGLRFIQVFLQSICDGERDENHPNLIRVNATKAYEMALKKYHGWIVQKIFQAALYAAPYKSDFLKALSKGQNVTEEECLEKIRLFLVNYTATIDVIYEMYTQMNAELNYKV

| Binder | binding [1] | binding [2] | binding [3] |
| --- | --- | --- | --- |
| C-terminal region of human delta-catenin (672-1225 a.a.), pACT2 clone (domain or fragment, UniProt Q9UQB3 672-1225) MPIIQDALAVLTNAVIIPHSGWENSPLQDDRKIQLHSSQVLRNATGCLRNVSSAGEEARRRMRECDGLTDALLYVIQSALGSSEIDSKTVENCVCILRNLSYRLAAETSQGQHMGTDELDGLLCGEANGKDAESSGCWGKKKKKKKSQDQWDGVGPLPDCAEPPKGIQMLWHPSIVKPYLTLLSECSNPDTLEGAAGALQNLAAGSWKWSVYIRAAVRKEKGLPILVELLRIDNDRVVCAVATALRNMALDVRNKELIGKYAMRDLVHRLPGGNNSNNTASKAMSDDTVTAVCCTLHEVITKNMENAKALRDAGGIEKLVGISKSKGDKHSPKVVKAASQVLNSMWQYRDLRSLYKKDGWSQYHFVASSSTIERDRQRPYSSSRTPSISPVRVSPNNRSASAPASPREMISLKERKTDYECTGSNATYHGAKGEHTSRKDAMTAQNTGISTLYRNSYGAPAEDIKHNQVSAQPVPQEPSRKDYETYQPFQNSTRNYDESFFEDQVHHRPPASEYTMHLGLKSTGNYVDFYSAARPYSELNYETSHYPASPDSWV | binds | – | – |
| FLAG-C-terminal δ-catenin (672-1225 a.a.) (domain or fragment, UniProt Q9UQB3 672-1225) MPIIQDALAVLTNAVIIPHSGWENSPLQDDRKIQLHSSQVLRNATGCLRNVSSAGEEARRRMRECDGLTDALLYVIQSALGSSEIDSKTVENCVCILRNLSYRLAAETSQGQHMGTDELDGLLCGEANGKDAESSGCWGKKKKKKKSQDQWDGVGPLPDCAEPPKGIQMLWHPSIVKPYLTLLSECSNPDTLEGAAGALQNLAAGSWKWSVYIRAAVRKEKGLPILVELLRIDNDRVVCAVATALRNMALDVRNKELIGKYAMRDLVHRLPGGNNSNNTASKAMSDDTVTAVCCTLHEVITKNMENAKALRDAGGIEKLVGISKSKGDKHSPKVVKAASQVLNSMWQYRDLRSLYKKDGWSQYHFVASSSTIERDRQRPYSSSRTPSISPVRVSPNNRSASAPASPREMISLKERKTDYECTGSNATYHGAKGEHTSRKDAMTAQNTGISTLYRNSYGAPAEDIKHNQVSAQPVPQEPSRKDYETYQPFQNSTRNYDESFFEDQVHHRPPASEYTMHLGLKSTGNYVDFYSAARPYSELNYETSHYPASPDSWV | – | binds | binds |
| FLAG-N-terminal δ-catenin (1-692 a.a.) (domain or fragment, UniProt Q9UQB3 1-692) MFARKPPGAAPLGAMPVPDQPSSASEKTSSLSPGLNTSNGDGSETETTSAILASVKEQELQFERLTRELEAERQIVASQLERCKLGSETGSMSSMSSAEEQFQWQSQDGQKDIEDELTTGLELVDSCIRSLQESGILDPQDYSTGERPSLLSQSALQLNSKPEGSFQYPASYHSNQTLALGETTPSQLPARGTQARATGQSFSQGTTSRAGHLAGPEPAPPPPPPPREPFAPSLGSAFHLPDAPPAAAAAALYYSSSTLPAPPRGGSPLAAPQGGSPTKLQRGGSAPEGATYAAPRGSSPKQSPSRLAKSYSTSSPINIVVSSAGLSPIRVTSPPTVQSTISSSPIHQLSSTIGTYATLSPTKRLVHASEQYSKHSQELYATATLQRPGSLAAGSRASYSSQHGHLGPELRALQSPEHHIDPIYEDRVYQKPPMRSLSQSQGDPLPPAHTGTYRTSTAPSSPGVDSVPLQRTGSQHGPQNAAAATFQRASYAAGPASNYADPYRQLQYCPSVESPYSKSGPALPPEGTLARSPSIDSIQKDPREFGWRDPELPEVIQMLQHQFPSVQSNAAAYLQHLCFGDNKIKAEIRRQGGIQLLVDLLDHRMTEVHRSACGALRNLVYGKANDDNKIALKNCGGIPALVRLLRKTTDLEIRELVTGVLWNLSSCDALKMPIIQDALAVLTNAVIIPHSG | – | no binding | – |
| FLAG-δ-catenin (full length) (protein, UniProt Q9UQB3 1-1225) MFARKPPGAAPLGAMPVPDQPSSASEKTSSLSPGLNTSNGDGSETETTSAILASVKEQELQFERLTRELEAERQIVASQLERCKLGSETGSMSSMSSAEEQFQWQSQDGQKDIEDELTTGLELVDSCIRSLQESGILDPQDYSTGERPSLLSQSALQLNSKPEGSFQYPASYHSNQTLALGETTPSQLPARGTQARATGQSFSQGTTSRAGHLAGPEPAPPPPPPPREPFAPSLGSAFHLPDAPPAAAAAALYYSSSTLPAPPRGGSPLAAPQGGSPTKLQRGGSAPEGATYAAPRGSSPKQSPSRLAKSYSTSSPINIVVSSAGLSPIRVTSPPTVQSTISSSPIHQLSSTIGTYATLSPTKRLVHASEQYSKHSQELYATATLQRPGSLAAGSRASYSSQHGHLGPELRALQSPEHHIDPIYEDRVYQKPPMRSLSQSQGDPLPPAHTGTYRTSTAPSSPGVDSVPLQRTGSQHGPQNAAAATFQRASYAAGPASNYADPYRQLQYCPSVESPYSKSGPALPPEGTLARSPSIDSIQKDPREFGWRDPELPEVIQMLQHQFPSVQSNAAAYLQHLCFGDNKIKAEIRRQGGIQLLVDLLDHRMTEVHRSACGALRNLVYGKANDDNKIALKNCGGIPALVRLLRKTTDLEIRELVTGVLWNLSSCDALKMPIIQDALAVLTNAVIIPHSGWENSPLQDDRKIQLHSSQVLRNATGCLRNVSSAGEEARRRMRECDGLTDALLYVIQSALGSSEIDSKTVENCVCILRNLSYRLAAETSQGQHMGTDELDGLLCGEANGKDAESSGCWGKKKKKKKSQDQWDGVGPLPDCAEPPKGIQMLWHPSIVKPYLTLLSECSNPDTLEGAAGALQNLAAGSWKWSVYIRAAVRKEKGLPILVELLRIDNDRVVCAVATALRNMALDVRNKELIGKYAMRDLVHRLPGGNNSNNTASKAMSDDTVTAVCCTLHEVITKNMENAKALRDAGGIEKLVGISKSKGDKHSPKVVKAASQVLNSMWQYRDLRSLYKKDGWSQYHFVASSSTIERDRQRPYSSSRTPSISPVRVSPNNRSASAPASPREMISLKERKTDYECTGSNATYHGAKGEHTSRKDAMTAQNTGISTLYRNSYGAPAEDIKHNQVSAQPVPQEPSRKDYETYQPFQNSTRNYDESFFEDQVHHRPPASEYTMHLGLKSTGNYVDFYSAARPYSELNYETSHYPASPDSWV | – | no binding | – |
